Consider one molecule from paper PMC12421412 (2025).

Holding throughout (assay): SPR
(In general: SPR reads the build-up and loss of mass on a sensor chip optically.)

Test [1] addresses T1, soluble mutant SORLA^N1358S ectodomain, hexa-His-tagged (human, UniProt Q92673 82-2137, N1358S).
In test [2] the target is T2, soluble wildtype SORLA ectodomain (Sortilin-related receptor with A-type repeats), hexa-His-tagged (human, UniProt Q92673 82-2137).
Test [3] deals with T1, soluble mutant SORLA^N1358S ectodomain, …. The source holds these as a separate data set.
Test [4] addresses T2, soluble wildtype SORLA ectodomain …. This is another data set of the same source.

B1: ectodomain of APP^695 (amyloid precursor protein) (domain or fragment)
chain: not shown
For orientation: koff means the first-order rate constant of dissociation. Read a high koff as a short-lived complex. Usually Kd stands for the free concentration of one partner at which half of the binding sites on the other are occupied at equilibrium, for simple one-to-one binding. Read a high Kd as weaker binding. For B1, the koff in test [1] turned out to be 0.0025 s⁻¹; in test [2], 0.0039 s⁻¹. Moreover, the Kd in test [3] was 2000 nM; in test [4], 1000 nM.
